Laboratory results from the supplement of paper PMC10037445.
Over roughly 2,900 compounds, “IRF Lucia reporter activity, fold change vs agonist alone” has its median near 0.9; the highest 2% begin near 2.8. This is one part of the list.

How the values were obtained:
[1] = tested on: RAW-Dual; test: IRF Lucia reporter activity, fold change vs agonist alone; cytotoxicity flag (confluency mask): not cytotoxic; higher = enhanced IRF activity
How it was run: (§1)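 After 50 nL of library stock was delivered by pin tool to RAW-Dual macrophages (50,000 cells/well, DMEM, 384-well plates), a PRR agonist was added 1 h later and the plates were kept at 37 °C, 5% CO2. Twenty hours later, IRF was read from supernatant by QuantiLuc luminescence and NF-κB by QuantiBlue absorbance at 620 nm. Reporter activity is stated as fold change over agonist-alone wells. Wells with IncuCyte confluency under 70% of agonist controls in both mask sets were counted as cytotoxic.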

[2] = tested on: RAW-Dual; test: IRF Lucia reporter activity, fold change vs agonist alone; higher = enhanced IRF activity; settings: library stock concentration (final ~1000-fold dilution): 10 mM, agonist: MPLA (TLR4) […]
How it was run: as §1

[3] = tested on: RAW-Dual; test: IRF Lucia reporter activity, fold change vs agonist alone; cytotoxicity flag (confluency mask): cytotoxic (confluency <70% of control); higher = enhanced IRF activity
How it was run: as §1

[4] = agonist: 3'3'-cGAMP (STING) 10 ug/mL
[5] = cytotoxicity flag (confluency mask): not cytotoxic
[6] = cytotoxicity flag (confluency mask): cytotoxic (confluency <70% of control)

C/C(O)=C(\C#N)C(=O)Nc1ccc(C(F)(F)F)cc1 (library stock concentration (final ~1000-fold dilution): 10 mM)
IRF Lucia reporter activity [1, 4]: 1.69 | IRF Lucia reporter activity ([1]; agonist: LPS (TLR4) 0.1 ug/mL): 3.04

C/C(O)=C(\C#N)C(=O)Nc1ccc(C(F)(F)F)cc1
IRF Lucia reporter activity [2, 5]: 1.97

Cc1cc(Nc2ncc(Cl)c(Nc3ccccc3S(=O)(=O)C(C)C)n2)c(OC(C)C)cc1C1CCNCC1
IRF Lucia reporter activity [2, 6]: 0.285

Cc1cc(Nc2ncc(Cl)c(Nc3ccccc3S(=O)(=O)C(C)C)n2)c(OC(C)C)cc1C1CCNCC1 (library stock concentration (final ~1000-fold dilution): 10 mM)
IRF Lucia reporter activity [3, 4]: 0.0824 | IRF Lucia reporter activity ([3]; agonist: LPS (TLR4) 0.1 ug/mL): 0.0631

CC(C)=CCC/C(C)=C\CO (library stock concentration (final ~1000-fold dilution): 10 mM)
IRF Lucia reporter activity [1, 4]: 1.28 | IRF Lucia reporter activity ([1]; agonist: LPS (TLR4) 0.1 ug/mL): 1.15

COCCCOc1ccnc(C[S+]([O-])c2nc3ccccc3[nH]2)c1C (stereo unspecified) (library stock concentration (final ~1000-fold dilution): 10 mM)
IRF Lucia reporter activity [1, 4]: 1.01 | IRF Lucia reporter activity ([1]; agonist: LPS (TLR4) 0.1 ug/mL): 0.827

COCCCOc1ccnc(C[S+]([O-])c2nc3ccccc3[nH]2)c1C (stereo unspecified)
IRF Lucia reporter activity [2, 5]: 1.01

CC(Cc1ccc(O)c(O)c1)C(C)Cc1ccc(O)c(O)c1 (stereo unspecified) (library stock concentration (final ~1000-fold dilution): 10 mM)
IRF Lucia reporter activity [3, 4]: 0.0204 | IRF Lucia reporter activity ([3]; agonist: LPS (TLR4) 0.1 ug/mL): 0.0871

CC(Cc1ccc(O)c(O)c1)C(C)Cc1ccc(O)c(O)c1 (stereo unspecified)
IRF Lucia reporter activity [2, 6]: 0.108

Nc1ncc(-c2ccnc(Nc3ccncc3)n2)c(CC2CC2)n1 (library stock concentration (final ~1000-fold dilution): 10 mM)
IRF Lucia reporter activity [3, 4]: 0.336 | IRF Lucia reporter activity ([3]; agonist: LPS (TLR4) 0.1 ug/mL): 3.92

C=C1CC23CCC4C(C)(C(=O)O)CCCC4(C)C2CCC1C3 (stereo unspecified) (library stock concentration (final ~1000-fold dilution): 10 mM)
IRF Lucia reporter activity [1, 4]: 1.11 | IRF Lucia reporter activity ([1]; agonist: LPS (TLR4) 0.1 ug/mL): 0.862

O=C(O)CCC1CCC(c2cc(F)ccc2F)(S(=O)(=O)c2ccc(Cl)cc2)CC1 (stereo unspecified)
IRF Lucia reporter activity [2, 5]: 1.25

O=C(O)CCC1CCC(c2cc(F)ccc2F)(S(=O)(=O)c2ccc(Cl)cc2)CC1 (stereo unspecified) (library stock concentration (final ~1000-fold dilution): 10 mM)
IRF Lucia reporter activity [1, 4]: 1.22 | IRF Lucia reporter activity ([1]; agonist: LPS (TLR4) 0.1 ug/mL): 1.22

CC(C)CCn1c(CN2CCN(C(=O)C3CC3)CC2)nc2c1c(=O)n(C)c(=O)n2C (library stock concentration (final ~1000-fold dilution): 10 mM)
IRF Lucia reporter activity [1, 4]: 0.987 | IRF Lucia reporter activity ([1]; agonist: LPS (TLR4) 0.1 ug/mL): 0.989

NS(=O)(=O)C#Cc1ccccc1
IRF Lucia reporter activity [2, 5]: 0.0867

NS(=O)(=O)C#Cc1ccccc1 (library stock concentration (final ~1000-fold dilution): 10 mM)
IRF Lucia reporter activity [1, 4]: 0.0435 | IRF Lucia reporter activity ([1]; agonist: LPS (TLR4) 0.1 ug/mL): 0.0196

C=CC(=O)Nc1cccc(Oc2nc(Nc3ccc(N4CCN(C)CC4)c(F)c3)nc3[nH]ccc23)c1 (library stock concentration (final ~1000-fold dilution): 10 mM)
IRF Lucia reporter activity [3, 4]: 0.0177 | IRF Lucia reporter activity ([3]; agonist: LPS (TLR4) 0.1 ug/mL): 0.0137

CC(C)(O)CNc1nc(Nc2ccnc(C(F)(F)F)c2)nc(-c2cccc(C(F)(F)F)n2)n1 (library stock concentration (final ~1000-fold dilution): 10 mM)
IRF Lucia reporter activity [1, 4]: 1 | IRF Lucia reporter activity ([1]; agonist: LPS (TLR4) 0.1 ug/mL): 1.29

NC1CCCN(c2c(/C=C3\SC(=O)NC3=O)cccc2-c2ccccc2)C1 (stereo unspecified) (library stock concentration (final ~1000-fold dilution): 10 mM)
IRF Lucia reporter activity [1, 4]: 0.968 | IRF Lucia reporter activity ([1]; agonist: LPS (TLR4) 0.1 ug/mL): 1.16

NC1CCCN(c2c(/C=C3\SC(=O)NC3=O)cccc2-c2ccccc2)C1 (stereo unspecified)
IRF Lucia reporter activity [2, 5]: 1.1

CC(C)(C)c1cc(NC(=O)Nc2ccc(Oc3ccnc4[nH]c(=O)cnc34)cc2F)n(-c2ccccc2)n1 (library stock concentration (final ~1000-fold dilution): 10 mM)
IRF Lucia reporter activity [3, 4]: 0.0165 | IRF Lucia reporter activity ([3]; agonist: LPS (TLR4) 0.1 ug/mL): 0.0196

O=C(O)CCCN1CCC(OC(c2ccc(Cl)cc2)c2ccccn2)CC1 (stereo unspecified)
IRF Lucia reporter activity [2, 5]: 1.04

O=C(O)CCCN1CCC(OC(c2ccc(Cl)cc2)c2ccccn2)CC1 (stereo unspecified) (library stock concentration (final ~1000-fold dilution): 10 mM)
IRF Lucia reporter activity [1, 4]: 1.04 | IRF Lucia reporter activity ([1]; agonist: LPS (TLR4) 0.1 ug/mL): 0.609

COC(=O)C1=C(C)NC(C)=C(C(=O)OCCN2CCN(C(c3ccccc3)c3ccccc3)CC2)C1c1cccc([N+](=O)[O-])c1.Cl.Cl (stereo unspecified) (library stock concentration (final ~1000-fold dilution): 10 mM)
IRF Lucia reporter activity [1, 4]: 0.103 | IRF Lucia reporter activity ([1]; agonist: LPS (TLR4) 0.1 ug/mL): 0.852

COC(=O)C1=C(C)NC(C)=C(C(=O)OCCN2CCN(C(c3ccccc3)c3ccccc3)CC2)C1c1cccc([N+](=O)[O-])c1.Cl.Cl (stereo unspecified)
IRF Lucia reporter activity [2, 5]: 0.781

O=c1cc(N2CCOCC2)oc2c(-c3ccc4c(c3)OCCO4)csc12 (library stock concentration (final ~1000-fold dilution): 10 mM)
IRF Lucia reporter activity [1, 4]: 0.12 | IRF Lucia reporter activity ([1]; agonist: LPS (TLR4) 0.1 ug/mL): 0.269

COC(=O)C1C(O)CCC2CN3CCc4c([nH]c5ccccc45)C3CC21.Cl (stereo unspecified) (library stock concentration (final ~1000-fold dilution): 10 mM)
IRF Lucia reporter activity [1, 4]: 0.963 | IRF Lucia reporter activity ([1]; agonist: LPS (TLR4) 0.1 ug/mL): 1.17

COC(=O)C1C(O)CCC2CN3CCc4c([nH]c5ccccc45)C3CC21.Cl (stereo unspecified)
IRF Lucia reporter activity [2, 5]: 0.921

CCOc1ccc(Cc2cc(C34OCC(CO)(O3)C(O)C(O)C4O)ccc2Cl)cc1 (stereo unspecified)
IRF Lucia reporter activity [2, 5]: 1.14

CCOc1ccc(Cc2cc(C34OCC(CO)(O3)C(O)C(O)C4O)ccc2Cl)cc1 (stereo unspecified) (library stock concentration (final ~1000-fold dilution): 10 mM)
IRF Lucia reporter activity [1, 4]: 1.09 | IRF Lucia reporter activity ([1]; agonist: LPS (TLR4) 0.1 ug/mL): 1.33

CC(C)CC(=O)Nc1cncc(-c2ccc3[nH]nc(-c4nc5cncc(-c6cccc(F)c6)c5[nH]4)c3c2)c1 (library stock concentration (final ~1000-fold dilution): 10 mM)
IRF Lucia reporter activity [3, 4]: 0.0977 | IRF Lucia reporter activity ([3]; agonist: LPS (TLR4) 0.1 ug/mL): 0.271

Nc1ncnc2c1c(I)cn2C1OC(CO)C(O)C1O (stereo unspecified) (library stock concentration (final ~1000-fold dilution): 10 mM)
IRF Lucia reporter activity [3, 4]: 0.00867 | IRF Lucia reporter activity ([3]; agonist: LPS (TLR4) 0.1 ug/mL): 0.015

CC(=O)Oc1cc(C)c(OC(C)=O)c2ccccc12 (library stock concentration (final ~1000-fold dilution): 10 mM)
IRF Lucia reporter activity [3, 4]: 0.0215 | IRF Lucia reporter activity ([3]; agonist: LPS (TLR4) 0.1 ug/mL): 0.0477

CC(=O)Oc1cc(C)c(OC(C)=O)c2ccccc12
IRF Lucia reporter activity [2, 6]: 0.0702
